US20150366852A1, “Prevention of Obesity in Antipsychotic, Antidepressant and Antiepileptic Medication” (N-Gene Research Laboratories, Inc., priority 2006, published 2015)

Tested on: female Wistar rats
Assay type: in vivo
Conditions: compound alone, 21 days

In the case of Cc1nc2n(c(=O)c1CCN1CCC(c3noc4cc(F)ccc34)CC1)CCCC2 [Risperidone, 3-[2-[4-(6-fluoro-1,2-benzisoxazol-3-yl)-1-piperidinyl]ethyl]-6,7,8,9-tetrahydro-2-methyl-4H-pyrido[1,2-a]pyrimidin-4-one], the “Body weight gain relative to the control group (in words)” value is reported as “increased body weight gain relative to the control group”.
